Laboratory results published in PubChem BioAssay AID1963576 (National Center for Advancing Translational Sciences (NCATS), 2024).
In all, about 46,000 compounds went through this assay and about 60 (0.1%) were called active. Another 3% or so got no clear call; they are omitted. Calls come from the whole dose curve; as a rule, active = well fitted inhibition curve with a large enough effect; inconclusive = small, poorly fitted or top-dose-only effect; inactive = no such curve, though single readings can be large or run the other way. This is one part of the list.

Test: Primary qHTS assay for Inhibitors of ovarian cancer metastasis using an organotypic tumor microenvironment (TME) model.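 For activity change, negative = inhibition: plate controls were DMSO wells for no effect and tomatine positive control wells for full effect.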 Note: nearly all actives have a fitted effect of over 65% in size.
Conditions: SKOV3ip1-GFP adhesion/invasion on 3D omental model, fluorescence; series mostly up to 45.8 µM; activity change, negative = inhibition: at the top concentration
How it was run: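 qHTS, 4-pt dose (0.36-46 umol/L); SKOV3ip1-GFP, 1,200 cells/well, no FBS; primary omental fibroblast/mesothelial co-culture 48 h pre-grown; 2 h RT + 16 h 37 C; PBS wash, 4% PFA; GFP count 488/509 nm.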

| SMILES | activity change, negative = inhibition | outcome |
| --- | --- | --- |
| COc1ccc(NC(=O)Cn2c(=O)oc3cc(S(=O)(=O)NCc4ccccc4)ccc32)c(OC)c1 | inactive: 10.1% |  |
| CCCCN(C)CCCNC(=O)Cn1ncc2c3ccccc3n(Cc3ccccc3F)c2c1=O | inactive: -29.1% |  |
| CC(C)NC(=O)Cn1c(=O)nc(-c2ccccc2F)c2cc(Cl)ccc21 | inactive: -7.91% |  |
| CCOc1ccc(CN2C(=O)c3ccccc3Sc3ccc(C(=O)NC)cc32)cc1 | inactive: -8.83% |  |
| Cc1cccc(CNC(=O)c2oc3c(c2C)-c2nn(Cc4cccc(Cl)c4)cc2CC3)c1 | inactive: -4.57% |  |
| Cc1cn2c(=O)cc(COc3ccccc3NC(=O)c3ccc(C(C)(C)C)cc3)nc2s1 |  | inactive |
| Cc1ccc(NC(=O)N2CCC3(CC2)Oc2ccccc2C(=O)N3Cc2ccc(F)cc2)cc1 | inactive: 9.99% |  |
| O=C(NCCc1ccccc1)c1ccc2c(c1)N(Cc1ccc(F)cc1Cl)C(=O)CS2 |  | inactive |
| CC(Oc1ccccc1)C(=O)Nc1cccc(-c2cn3cccnc3n2)c1 (stereo unspecified) | inactive: 1.19% |  |
| CCNC(=O)c1ccc2c(c1)sc1nc(-c3cccc(OC)c3)cn12 | inactive: -4.12% |  |
| COc1ccc(/C=C/c2nc(C#N)c(NCc3ccc(C)cc3)o2)cc1OC | inactive: -1.83% |  |
| Cc1c2cnn(CC(=O)NC(C)C)c(=O)c2c(C)n1Cc1cccc(Cl)c1 | inactive: -0.528% |  |
| CCc1ccc(OC(=O)CSc2nnc(-c3ccc(OC)c(OC)c3)o2)cc1 | inactive: 4.19% |  |
| Cc1c(C(=O)OC2CCC(C)CC2)[nH]c2c1C(=O)CC(c1ccc(N(C)C)cc1)C2 (stereo unspecified) | inactive: -3.99% |  |
| Fc1ccc(-c2cc(-c3nc(-c4ccc(Cl)cc4)no3)[nH]n2)cc1 | inactive: 7.81% |  |
| COc1ccc(S(=O)(=O)c2c(C(=O)c3ccc(C)c(C)c3)cnc3ccc(C)cc23)cc1 | inactive: -1.39% |  |
| CCOc1nc(-c2ccccc2)ccc1-c1noc(-c2ccc(C)cc2)n1 | inactive: -4.96% |  |
| O=C(Cn1cc(SCc2cccc(Cl)c2)c2ccccc21)N1CCCCC1 | inactive: -26.3% |  |
| CCOc1ccc(NC(=O)CC2C(=O)N(c3ccccc3)C(=O)N2CCc2sccc2C)cc1 (stereo unspecified) | inactive: 4.68% |  |
| COc1cccc(OCC(=O)NC2CC(=O)N(c3cccc(OC)c3)C2)c1 (stereo unspecified) |  | inactive |
| COC(=O)c1cc(NC(=O)CC2C(=O)OCCN2Cc2ccccc2)cc(C(=O)OC)c1 (stereo unspecified) | inactive: -6.59% |  |
| Cc1ccccc1CSc1nc2c(sc3ccccc32)c(=O)n1CCCC(=O)NCCCOC(C)C | inactive: 6.83% |  |
| CC(=O)c1ccc(NC(=O)c2nc(-c3ccc(Cl)cc3)n3c2CCCCC3)cc1 | inactive: -7.15% |  |
| CC(C)(C)OC(=O)N1CCC(c2c(C(=O)N3CCN(C(=O)c4ccco4)CC3)cnn2-c2cccc(Cl)c2)CC1 | inactive: 2.04% |  |
| COCc1cc(C)nc2c1C(=O)NC(c1ccc(NC(C)=O)cc1)N2Cc1ccccc1 (stereo unspecified) |  | inactive |
| COc1ccc(NC(=O)Cn2c(=O)c3ccccc3n3nncc23)cc1Cl | inactive: 5.4% |  |
